According to paper PMC7819943, “Rice protein-binding microarrays: a tool to detect cis-acting elements near promoter regions in rice”:
The list shows a part of the results.

These sequences were tested against T1, OsWOX13 (Oryza sativa, UniProt Q5QMM3 1-267) (assay: protein-binding microarray (RPBM); PBS, 2% BSA, 51.3 ng/ul salmon testes DNA, 50 uM zinc acetate, 200 nM TF, 25 C, 1 h; high values mean tight binding). Conditions: protein: recombinant; tags: N-terminal polyhistidine and DsRed monomer fusion (pET32a); label: CyDye5-dUTP incorporated in the synthesized complementary strand; 3' TTTTT single-stranded linker to array surface; dsDNA, one strand shown.
T1 sequence: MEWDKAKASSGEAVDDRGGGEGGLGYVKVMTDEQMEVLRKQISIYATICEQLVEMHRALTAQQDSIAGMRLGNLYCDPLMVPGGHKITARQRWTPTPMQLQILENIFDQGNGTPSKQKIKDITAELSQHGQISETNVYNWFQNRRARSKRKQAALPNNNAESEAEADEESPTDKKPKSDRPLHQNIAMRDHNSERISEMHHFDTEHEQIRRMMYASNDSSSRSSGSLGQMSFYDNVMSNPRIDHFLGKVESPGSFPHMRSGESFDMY
Method in brief: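 Ni–NTA purification followed expression in E. coli BL21-CodonPlus of transcription factors fused N-terminally to a polyhistidine tag and DsRed. At 200 nM in PBS with 2% BSA, salmon testes DNA and 50 µM zinc acetate, the protein was incubated for 1 h at 25 °C with a custom Agilent array that had been primer-extended with Cy5-dUTP and blocked with 2% BSA. After washing, the array was read on an Axon 4000B scanner. The binding signal is per-feature fluorescence intensity in arbitrary units.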
With “GCTGTGATTTCTCATCCAACACAACATTATGCCATCACTACGGAGTCACCTAGTGCAG” the binding signal was 5790 fluorescence intensity (a.u.).
For “AGCGGTGTGACATATAAACTGATTAGTAACCGGTGGTGTGCGGAGTCACCTAGTGCAG”, the binding signal was 21300 fluorescence intensity (a.u.).
In the case of “ATTAATTAATTAATTAAATGCGGTGAGCAATAATGATTAACGGAGTCACCTAGTGCAG”, the binding signal is reported as 40900 fluorescence intensity (a.u.).
For “ATAACTAATTACACAGATTGCGACTAATTTGCGAGACGAACGGAGTCACCTAGTGCAG”, the binding signal was 45700 fluorescence intensity (a.u.).
“ATGATATATAAAATATAAATTACTCCTTTCCAATCCTAAGCGGAGTCACCTAGTGCAG” was tested, and the binding signal was 3220 fluorescence intensity (a.u.).
In the case of “TGGCATAATGGTAATTAATAATGATAGTGATAGTAGTACGCGGAGTCACCTAGTGCAG”, the binding signal is reported as 12900 fluorescence intensity (a.u.).
“GAATAATTAGGTGCACCTGCGTCTTGCTGGGGATCTAAAGCGGAGTCACCTAGTGCAG” was tested, and the binding signal was 5730 fluorescence intensity (a.u.).
With “AATTCATTCAAAATCAATCAAAATTTCAAATAATTTCGTTCGGAGTCACCTAGTGCAG” the binding signal was 15200 fluorescence intensity (a.u.).
In the case of “GCGTAATGATTAATGTTAGGACATGTCTCTAGACGGATGACGGAGTCACCTAGTGCAG”, the binding signal is reported as 28200 fluorescence intensity (a.u.).
In the case of “CCAAACTAGTACAATTTTCCATCAAGATAACGACGAACGCCGGAGTCACCTAGTGCAG”, the binding signal is reported as 3690 fluorescence intensity (a.u.).
For “TTTCTATTCAATTATCGCCTAACCATAGTTTATGTTTACTCGGAGTCACCTAGTGCAG”, the binding signal was 11400 fluorescence intensity (a.u.).
For “AATTTAAATAATTATTTATTCTTTTCATGTCATTTGATTCCGGAGTCACCTAGTGCAG”, the binding signal was 20100 fluorescence intensity (a.u.).
“TCTAAATTTGCGCAACCTCTCATGCCACTCTCCGTCAGTTCGGAGTCACCTAGTGCAG” was tested, and the binding signal was 7780 fluorescence intensity (a.u.).
In the case of “CAAATCATGTAGCAATTAGGCTTAAAAGATCCGTCTCATACGGAGTCACCTAGTGCAG”, the binding signal is reported as 7460 fluorescence intensity (a.u.).
“TAACTGATTAGCGTCGGGAGCATAGCATTGGTCGAGTGAGCGGAGTCACCTAGTGCAG” was tested, and the binding signal was 28700 fluorescence intensity (a.u.).
“TTGTAAATTTATGTGTATAAGTAAAGTTTCGATGTGATGGCGGAGTCACCTAGTGCAG” was tested, and the binding signal was 8120 fluorescence intensity (a.u.).
For “GCGATTTAAACTAGATTAAAAGCCTATTTAGATTGGTGCCCGGAGTCACCTAGTGCAG”, the binding signal was 13100 fluorescence intensity (a.u.).
“CTATATTTGATTGCACAGATGATGAAAACCATACCTAAGCCGGAGTCACCTAGTGCAG” was tested, and the binding signal was 30800 fluorescence intensity (a.u.).
With “TACTTCATTAATTTATTATGTTTCTTCATAGGAAAAGACACGGAGTCACCTAGTGCAG” the binding signal was 6640 fluorescence intensity (a.u.).
“TATTTAATTAATTATTTTCTCTCATCTCGTCTTCTCCGCACGGAGTCACCTAGTGCAG” was tested, and the binding signal was 51900 fluorescence intensity (a.u.).
In the case of “TATAATTATAATGTAATTACGTCGTAACGTGCATATAACTCGGAGTCACCTAGTGCAG”, the binding signal is reported as 46800 fluorescence intensity (a.u.).
In the case of “CCTGACTGCCATAACTCAGTCCATTGTCTTAAGTCGCAAACGGAGTCACCTAGTGCAG”, the binding signal is reported as 15900 fluorescence intensity (a.u.).
“CATGAGTAAATCAATCAGGGATGGCAACATTCAGGTTTAGCGGAGTCACCTAGTGCAG” was tested, and the binding signal was 12200 fluorescence intensity (a.u.).
For “GCGCAAATTAAATGCAGGTAAAATGCACAAGTGTTGTAATCGGAGTCACCTAGTGCAG”, the binding signal was 11100 fluorescence intensity (a.u.).
For “CAAACGATTGGATCAGGATTAGTCCGGCCCGATAGATGGGCGGAGTCACCTAGTGCAG”, the binding signal was 5360 fluorescence intensity (a.u.).
In the case of “TACTAAATATGGGGTTGATGGGAACTCACCGTGCATACAACGGAGTCACCTAGTGCAG”, the binding signal is reported as 4390 fluorescence intensity (a.u.).
With “TGGCATGATTAACAATTGACCATAAACCCTCTAGTCTATCCGGAGTCACCTAGTGCAG” the binding signal was 25800 fluorescence intensity (a.u.).
With “ATTGATTGTTTAGTATCAAATAAGTTATCATGTGGATGTTCGGAGTCACCTAGTGCAG” the binding signal was 47400 fluorescence intensity (a.u.).
“TAAATAATTTGTCTATCACTTTTCCTACTCTTTGCACTTACGGAGTCACCTAGTGCAG” was tested, and the binding signal was 14700 fluorescence intensity (a.u.).
In the case of “ACATGTTAATCAGCTTTAATTAACTAGTGATCGATTAGCACGGAGTCACCTAGTGCAG”, the binding signal is reported as 19200 fluorescence intensity (a.u.).
In the case of “TTATAATTTTCCCTAAATATTATATACATGTAGGTGAGTTCGGAGTCACCTAGTGCAG”, the binding signal is reported as 17700 fluorescence intensity (a.u.).
For “CACTAACAGATTAGTTGGATGACTAGCTAGATAAGAAGGCCGGAGTCACCTAGTGCAG”, the binding signal was 40500 fluorescence intensity (a.u.).
In the case of “TTTTACTGATTAGGCCATCTGATACGAGCCAGAGACCGGTCGGAGTCACCTAGTGCAG”, the binding signal is reported as 21500 fluorescence intensity (a.u.).
“CCGGTTCTTATAATTAATAATTAGGGCCGGTTTGTTATGACGGAGTCACCTAGTGCAG” was tested, and the binding signal was 12100 fluorescence intensity (a.u.).
For “GATTAATCACCGTCTAGATGGGCTAGGCGGCCGTTTAGGCCGGAGTCACCTAGTGCAG”, the binding signal was 4450 fluorescence intensity (a.u.).
In the case of “ACCTTTAAATTTAAATTTTGGCTAACGAGAGCGGATGAAACGGAGTCACCTAGTGCAG”, the binding signal is reported as 15300 fluorescence intensity (a.u.).
With “CTTCTAATTATTTGATATTAGGTCATTCTCTAATATTCACCGGAGTCACCTAGTGCAG” the binding signal was 21400 fluorescence intensity (a.u.).
“CATTGATTGGATCGTACGCTTGTGTTGCATGACCAATGATCGGAGTCACCTAGTGCAG” was tested, and the binding signal was 44200 fluorescence intensity (a.u.).
For “TATGATCTAACAAATTGTTATTTCCAAGGATCATATAAAACGGAGTCACCTAGTGCAG”, the binding signal was 5440 fluorescence intensity (a.u.).
“TGGATTAATTTCTCCTCTTCTCTTCCTCCCGTTTATAATACGGAGTCACCTAGTGCAG” was tested, and the binding signal was 6370 fluorescence intensity (a.u.).
For “GAAATTGACGCTACAACGACTAACAAAATGCCGAAGCGTCCGGAGTCACCTAGTGCAG”, the binding signal was 16800 fluorescence intensity (a.u.).
With “TCGACAAATTGACAAAGTGAAGCTTATACATGGTTCTGTTCGGAGTCACCTAGTGCAG” the binding signal was 42200 fluorescence intensity (a.u.).
In the case of “TCCAAACATATAATTAGTTAGGTATGTAATTATGGATTGTCGGAGTCACCTAGTGCAG”, the binding signal is reported as 24400 fluorescence intensity (a.u.).
In the case of “AAATGATTATATCTTAGTTTTAACTTAAACAACTATTTGCCGGAGTCACCTAGTGCAG”, the binding signal is reported as 22100 fluorescence intensity (a.u.).
“TAGGCAAAGCTTGATTGGGATCCTCCAAAGTAAATTCAGACGGAGTCACCTAGTGCAG” was tested, and the binding signal was 3760 fluorescence intensity (a.u.).
“ATCTAGAAATTAAATTACCTACGGTTAATTCGAAGGTGGACGGAGTCACCTAGTGCAG” was tested, and the binding signal was 12900 fluorescence intensity (a.u.).
“ATGACAGCAATTCCGATATCTAATAAGATTGAAAATATTGCGGAGTCACCTAGTGCAG” was tested, and the binding signal was 14800 fluorescence intensity (a.u.).
With “ATATGATATTTGTCCATCTTAATTGCTTATAAGCTGTATACGGAGTCACCTAGTGCAG” the binding signal was 5090 fluorescence intensity (a.u.).
For “AAATGGATTAGTATCTATCATGCGTGAATTATCGAAATGACGGAGTCACCTAGTGCAG”, the binding signal was 4120 fluorescence intensity (a.u.).
With “AGTCTAATTGAGTGATTGTATACATGTTCAATGTTCATGGCGGAGTCACCTAGTGCAG” the binding signal was 65300 fluorescence intensity (a.u.).
In the case of “CCATAATTAGAGAATGTTTACTGTAGAATCATATAGGTTACGGAGTCACCTAGTGCAG”, the binding signal is reported as 27000 fluorescence intensity (a.u.).
For “ACTGATGATGCACTTGATTTGGATAATCTTCAGCACAAACCGGAGTCACCTAGTGCAG”, the binding signal was 29900 fluorescence intensity (a.u.).
In the case of “TTGCAAACTGACAGGACAAACAAACTACCAATATCAATCACGGAGTCACCTAGTGCAG”, the binding signal is reported as 14300 fluorescence intensity (a.u.).
For “CAGTTTAATAATTATGTTGAGTAAAATTTGATGATAAACCCGGAGTCACCTAGTGCAG”, the binding signal was 14600 fluorescence intensity (a.u.).
